# Patent US20230272055A1, “ANTI-MUTANT CALRETICULIN (CALR) ANTIBODIES AND USES THEREOF” (Incyte Corporation, priority 2021, published 2023)
# Residue numbers refer to the chain shown, from its start.
# B1: 32 (antibody)
# heavy: QVQLVQSGAEVKKPGATVKISCKVSGYSFTDYFIHWVQQAPGKGLAWVGLVDPEDGETIYAEKFQGRVTITADTSTDTAYMELSSLRSEDTAVYYCATPGGILTDPDAFDIWGQGTMVTVSSASTKGPSVFPLAPSSKSTSGGTAALGCLVKDYFPEPVTVSWNSGALTSGVHTFPAVLQSSGLYSLSSVVTVPSSSLGTQTYICNVNHKPSNTKVDKRV[omitted - human IgG1 Fc]
# light: QSALTQPASVSGSPGQSITISCTGTSSDVGGYNYVSWYQQHPGKAPKLMIYEVSNRPSGVSNRFSGSKSGNTASLTISGLQAEDEADYYCSSYTSSSTPYVFGTGTKVTVLGQPKAAPSVTLFPPSSEELQANKATLVCLISDFYPGAVTVAWKADSSPVKAGVETTTPSKQSNNKYAASSYLSLTPEQWKSHRSYSCQVTHEGSTVEKTVAPTECS
# B2: 40 (antibody)
# heavy: EVQLVQSGAEVKKPGASVKVSCKVSGYTLTESSMHWVRQAPGKGLEWMGLVDPEDGETIYAQKFQGRVTMTEDTSTDTAYMELSSLRSEDTAVYYCAREEWSGDGDDAFDIWGQGTMVTVSSASTKGPSVFPLAPSSKSTSGGTAALGCLVKDYFPEPVTVSWNSGALTSGVHTFPAVLQSSGLYSLSSVVTVPSSSLGTQTYICNVNHKPSNTKVDKRV[omitted - human IgG1 Fc]
# light: QSVLTQPPSVSAAPGQKVTISCSGSSSNIGSYSVSWYQQLPGTAPKLLIYDNNKRPSGIPDRFSGSNSGTSATLGITGLQTGDEADYYCGTWDSSLSAWVFGGGTKLTVLGQPKAAPSVTLFPPSSEELQANKATLVCLISDFYPGAVTVAWKADSSPVKAGVETTTPSKQSNNKYAASSYLSLTPEQWKSHRSYSCQVTHEGSTVEKTVAPTECS
# B3: 162 (antibody)
# heavy: QVQLVQSGAEVKKPGASVKVSCKVSGYTLTELSMQWVRQAPGKGLEWMGGFDPDDGETMYAEKFQGRLTVTEDTSTDTVYMELRSLTSEDTALYFCATSPGYDFFDYWGQGTLVTVSSASTKGPSVFPLAPSSKSTSGGTAALGCLVKDYFPEPVTVSWNSGALTSGVHTFPAVLQSSGLYSLSSVVTVPSSSLGTQTYICNVNHKPSNTKVDKRV[omitted - human IgG1 Fc with changes]
# light: SYVLTQPPSVSVAPGKTARITCGGDNIGSKSVHWYQQKPGQAPVLVVYDDSDRPSGIPERFSGSNSGNTATLTISRVEAGDEADYYCQVWDSSNDLLIFGGGTKLTVLGQPKAAPSVTLFPPSSEELQANKATLVCLISDFYPGAVTVAWKADSSPVKAGVETTTPSKQSNNKYAASSYLSLTPEQWKSHRSYSCQVTHEGSTVEKTVAPTECS
# B4: 14 (antibody)
# heavy: EVQLVQSGAEVKKPGASVKVSCKVSGYTLTELSMQWVRQAPGKGLEWMGGFDPDDGETMYAEKFQGRLAVTEDTSTDTVYMELRSLTSEDTALYFCATSPGYDFFDYWGQGTLVTVSSASTKGPSVFPLAPSSKSTSGGTAALGCLVKDYFPEPVTVSWNSGALTSGVHTFPAVLQSSGLYSLSSVVTVPSSSLGTQTYICNVNHKPSNTKVDKRV[omitted - human IgG1 Fc]
# light: B3 light with D25Y, S31F, Q36R, K38R, S51R
# Tests used:
# [1] = target: T1, recombinant MBP-mutCALR Type 1 fusion protein (Homo sapiens, UniProt P27797, DEL40-40); assay: Biacore SPR binding kinetics, Experiment 1; conditions: Biacore 8K, 25° C., 1:1 binding model
# T1 construct: His6 (N); purchased Cepter (cepterbiopartners.com), custom made
# [2] = tested on: MPL-mutCALR cells (BaF3 cells stably expressing human MPL and human mutCALR); assay: Flow cytometry binding to cell surface MPL and mutCALR (GMFI, four parameter fit); conditions: four parameter curve fitting
# Protocol: To assess binding of CALR antibodies to cell surface CALR, parental BaF3 (DSMZ) cells or BaF3 cells stably expressing only human MPL or both human MPL (Uniprot Number: P40238-1) and human mutCALR Type 1 and Type 2 were used. On the day of the assay, cells were washed and resuspended in assay buffer. Approximately 200,000 cells/well were added to 96-well plates and stained with the indicated concentration of antibodies for 30 minutes on ice. Cells were then washed and stained with goat anti-human secondary conjugated to R-phycoerythrin (R-PE) (Jackson Immuno Research Laboratories) for 30 minutes on ice. The cells were then washed and analyzed by flow cytometry. Geometric Mean Fluorescence Intensity (GMFI) of cell binding was graphed and EC50, hill slope, and area under the curve (AUC) were determined after four parameter curve fitting using GraphPad Prism Software (version 7.04).
# [3] = target: T1, recombinant MBP-mutCALR Type 1 fusion protein; assay: Biacore SPR binding kinetics, Experiment 2 (parental and variant antibodies); conditions: Biacore 8K, 25° C., 1:1 binding model
# [4] = tested on: Ba/F3-TPOR/mutCALR type 1 engineered cells; assay: Cell proliferation with antibody and/or ruxolitinib, mutCALR Type 1; format: cell-based; conditions: log value, 72 hours, marked *; for Log IC50, Antibody + ruxolitinib (extrapolated from fitted curve): with 50 nM ruxolitinib
# Protocol: To test the ability of anti-mutCALR antibodies to potentiate the therapeutic response of the JAK1/2 inhibitor ruxolitinib, Ba/F3 cells were engineered to express MPL+mutCALR Type 1 (52 bp deletion) or MPL+mutCALR Type 2 (5 bp insertion) as described above. Cells were plated at 5,000 cells per well in RPMI 1640+2% FBS, treated with 50 nM of ruxolitinib and/or anti-mutCALR antibodies. Cells were incubated for 72 hours followed by assessment of cell viability using the CellTiter-Glo Luminescent Cell Viability Assay (Promega, Madison, Wis.) and Top Count (Perkin Elmer, Boston, Mass.) or Pherastar (BMG Labtech, Ortenberg, Germany) for luminescence quantification. Ruxolitinib used at a concentration of 50 nM inhibited the level of oncogenic cell proliferation by approximately 20% (dotted line).
# [5] = target: T2, recombinant MBP-mutCALR Type 2 fusion protein (Homo sapiens, UniProt P27797); assay: Biacore SPR binding kinetics, Experiment 3
# T2 construct: His6 (N); purchased Cepter (cepterbiopartners.com), custom made
# Protocol: Experiment 2: Recombinant MBP-mutCALR Type 1 fusion protein was custom made at Cepter (cepterbiopartners.com). Data for the interaction of antibodies with recombinant mutCALR protein were collected at 25° C. on a Biacore 8K instrument (Cytiva, Marlborough, Mass.), and all reagents were obtained from Cytiva unless otherwise specified. The experiments were conducted using Tris-buffered saline (pH 7.2), 0.005% Surfactant P20, 1 mM CaCl2) as running buffer. To prepare the capture surfaces, anti-human IgG (Fc) antibodies (Product #29234600) was amine-coupled onto a CM4 chip (Product #BR100534) under standard conditions using an Amine Coupling Kit (Product #BR100050). Anti-mutCALR antibodies were captured onto the chip surface by injecting over flow cell 2 only at a flow rate of 10 μL/min for 30 seconds. Typical capture levels were in the range of 15-25RU. Recombinant MBP-mutCALR Type 1 fusion protein was prepared at nominal concentrations of 0, 0.75, 2.22, 6.67, 20, and 60 nM and injected over both flow cells 1 and 2 for 150 seconds at a flow rate of 69 L/min, followed by a 230-second dissociation phase at the same flow rate. The kinetics parameters were obtained by applying 1:1 binding model to fit the data from multiple-cycle injection experiments using Biacore Insight Evaluation software.
# Experiment 3: The amino acid sequence of recombinant MBP-mutCALR Type 2 fusion protein used in this Experiment 3 is:
# Recombinant MBP-mutCALR Type 2 fusion protein was custom made at Cepter (cepterbiopartners.com). Data for the interaction of antibodies with recombinant MBP-mutCALR Type 2 fusion protein were collected as described in Experiment 2. The chip used was a Biacore Series S Sensor Chip CM4 with anti-huFc immobilized onto the chip surface. Recombinant MBP-mutCALR Type 2 fusion protein was prepared at nominal concentrations of 1.1, 3.3, 10, 30, and 90 nM. Typical capture levels were in the range of 16-37RU.
# [6] = tested on: phosphorylation of STAT5 in Ba/F3 cells expressing MPL and Type 1 mutCALR; assay: Inhibition of pSTAT5 (MSD Phospho-STAT5a,b lysate kit); format: cell-based; conditions: 2 hours incubation
# Protocol: To test the ability of anti-mutCALR antibodies to inhibit phosphorylation of STAT5, Ba/F3 cells (DSMZ) expressing MPL and Type 1 mutCALR variants were generated by nucleofection (Amaxa Cell Line Nucleofection Kit V, Lonza, Basel, Switzerland) and cultured in RPMI 1640+10% FBS+selection antibiotics. Prior (24 hours) to pSTAT5 assessment, cells were cultured in selection-free media and then plated at 200,000 cells per well (96 well plate) in RPMI 1640, 10% FBS. Antibodies were added to the cells and incubated for 2 hours followed by cell lysing and quantification of pSTAT-5 levels by MSD (Phospho-STAT5a,b Whole Cell Lysate Kit, MSD, Kenilworth, N.J.). Anti-mutCALR antibodies inhibit phosphorylation of STAT5 in a dose-dependent manner (FIG. 1).
Molecule,ka [1] [M⁻¹ s⁻¹],kd [1] [s⁻¹],MPL-mutCALR Hill Slope [2],ka [3] [M⁻¹ s⁻¹],kd [3] [s⁻¹],"Log IC50, Antibody alone (extrapolated from fitted curve) [4]","Log IC50, Antibody + ruxolitinib (extrapolated from fitted curve) [4]",ka [5] [M⁻¹ s⁻¹],kd [5] [s⁻¹],"IC50 (μg/mL), inhibition of pSTAT5 [6] [μg/mL]"
B1,1.36e+06,0.00768,0.57,1.84e+06,0.00314,0.180* μg/mL,−0.586* μg/mL,,,
B2,5.17e+06,0.00538,0.50,3.44e+06,0.00121,,−1.595* μg/mL,,,
B3,,,,,,,,607000,0.00682,
B4,,,,,,,,,,0.06
